Laboratory results as given in article PMC4398442.
Substitutions are numbered along the chain they refer to. Results are given in words; binding and its absence hold for the method and conditions named. For some assays here: In cells and extracts the contact can be indirect. Some results given as binding are weak or reduced against the parent protein; the word gives no strength. For some assays here: Sequences can lack the tags named with a protein.

Chains of the proteins cited; added tags and fusions are not shown.
UniProt Q9UNF0: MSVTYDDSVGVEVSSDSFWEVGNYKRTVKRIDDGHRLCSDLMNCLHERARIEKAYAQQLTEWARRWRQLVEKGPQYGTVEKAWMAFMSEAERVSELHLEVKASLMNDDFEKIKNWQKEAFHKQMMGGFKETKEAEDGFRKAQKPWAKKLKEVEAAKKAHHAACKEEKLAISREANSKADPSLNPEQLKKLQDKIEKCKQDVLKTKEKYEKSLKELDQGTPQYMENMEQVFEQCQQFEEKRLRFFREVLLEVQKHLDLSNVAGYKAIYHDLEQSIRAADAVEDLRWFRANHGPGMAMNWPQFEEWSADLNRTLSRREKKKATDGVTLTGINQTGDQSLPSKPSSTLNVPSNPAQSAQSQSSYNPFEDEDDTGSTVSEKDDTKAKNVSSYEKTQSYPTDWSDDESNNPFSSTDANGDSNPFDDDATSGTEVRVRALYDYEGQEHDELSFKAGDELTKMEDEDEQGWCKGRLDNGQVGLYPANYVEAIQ
UniProt Q8N3F8: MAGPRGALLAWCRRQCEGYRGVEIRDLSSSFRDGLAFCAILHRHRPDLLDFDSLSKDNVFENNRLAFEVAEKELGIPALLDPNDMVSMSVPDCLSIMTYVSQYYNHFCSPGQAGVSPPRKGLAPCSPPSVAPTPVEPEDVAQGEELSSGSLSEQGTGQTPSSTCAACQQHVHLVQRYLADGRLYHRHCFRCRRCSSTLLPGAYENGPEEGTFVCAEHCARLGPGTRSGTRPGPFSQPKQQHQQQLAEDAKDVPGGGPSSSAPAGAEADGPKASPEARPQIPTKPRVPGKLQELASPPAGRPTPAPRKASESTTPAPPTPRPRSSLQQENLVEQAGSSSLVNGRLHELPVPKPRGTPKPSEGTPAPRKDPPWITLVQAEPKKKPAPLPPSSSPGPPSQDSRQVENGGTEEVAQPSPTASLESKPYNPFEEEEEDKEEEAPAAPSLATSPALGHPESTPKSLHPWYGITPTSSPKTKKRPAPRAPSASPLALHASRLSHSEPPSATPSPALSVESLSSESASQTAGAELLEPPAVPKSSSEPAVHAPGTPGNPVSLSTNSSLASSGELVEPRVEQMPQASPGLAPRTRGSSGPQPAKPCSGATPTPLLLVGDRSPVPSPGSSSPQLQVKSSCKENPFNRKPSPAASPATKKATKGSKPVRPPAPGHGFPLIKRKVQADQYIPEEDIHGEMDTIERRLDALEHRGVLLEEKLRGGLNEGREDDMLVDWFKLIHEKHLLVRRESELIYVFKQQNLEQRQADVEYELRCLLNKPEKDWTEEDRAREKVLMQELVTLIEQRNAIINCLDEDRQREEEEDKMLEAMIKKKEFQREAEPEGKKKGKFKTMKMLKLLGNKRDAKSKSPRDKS

T1: EHD1 (wt), Q9H4M9
T1 chain: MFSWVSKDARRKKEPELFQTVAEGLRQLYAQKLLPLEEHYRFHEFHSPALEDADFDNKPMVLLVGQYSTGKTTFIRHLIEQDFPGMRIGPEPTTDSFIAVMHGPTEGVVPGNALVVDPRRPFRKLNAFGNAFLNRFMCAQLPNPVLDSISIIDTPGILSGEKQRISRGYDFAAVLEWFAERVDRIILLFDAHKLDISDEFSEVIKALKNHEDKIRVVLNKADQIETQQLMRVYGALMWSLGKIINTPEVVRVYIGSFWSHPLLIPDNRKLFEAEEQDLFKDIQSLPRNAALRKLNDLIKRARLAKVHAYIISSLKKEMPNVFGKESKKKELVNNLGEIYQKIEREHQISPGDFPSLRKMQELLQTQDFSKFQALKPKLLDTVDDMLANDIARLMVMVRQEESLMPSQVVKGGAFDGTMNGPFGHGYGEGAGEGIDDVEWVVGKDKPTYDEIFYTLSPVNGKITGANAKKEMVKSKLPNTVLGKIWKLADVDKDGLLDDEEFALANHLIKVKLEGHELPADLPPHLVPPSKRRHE

T2: EHD4 (wt) (UniProt Q9H223)
T2 sequence: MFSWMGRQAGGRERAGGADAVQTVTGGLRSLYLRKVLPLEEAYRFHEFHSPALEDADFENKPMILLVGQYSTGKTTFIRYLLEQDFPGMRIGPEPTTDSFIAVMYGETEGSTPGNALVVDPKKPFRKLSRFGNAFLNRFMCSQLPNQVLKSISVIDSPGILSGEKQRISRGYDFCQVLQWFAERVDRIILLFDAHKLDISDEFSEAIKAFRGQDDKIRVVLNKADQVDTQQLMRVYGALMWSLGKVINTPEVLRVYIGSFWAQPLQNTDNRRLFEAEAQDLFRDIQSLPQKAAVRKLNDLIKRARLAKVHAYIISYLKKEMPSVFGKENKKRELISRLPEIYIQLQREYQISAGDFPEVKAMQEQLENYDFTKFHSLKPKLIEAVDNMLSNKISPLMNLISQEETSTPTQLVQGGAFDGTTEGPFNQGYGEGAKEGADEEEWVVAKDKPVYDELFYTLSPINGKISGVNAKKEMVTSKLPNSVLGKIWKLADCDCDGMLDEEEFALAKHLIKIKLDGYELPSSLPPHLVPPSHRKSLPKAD

T3: EHD3 (wt) (UniProt Q9NZN3)
T3 sequence: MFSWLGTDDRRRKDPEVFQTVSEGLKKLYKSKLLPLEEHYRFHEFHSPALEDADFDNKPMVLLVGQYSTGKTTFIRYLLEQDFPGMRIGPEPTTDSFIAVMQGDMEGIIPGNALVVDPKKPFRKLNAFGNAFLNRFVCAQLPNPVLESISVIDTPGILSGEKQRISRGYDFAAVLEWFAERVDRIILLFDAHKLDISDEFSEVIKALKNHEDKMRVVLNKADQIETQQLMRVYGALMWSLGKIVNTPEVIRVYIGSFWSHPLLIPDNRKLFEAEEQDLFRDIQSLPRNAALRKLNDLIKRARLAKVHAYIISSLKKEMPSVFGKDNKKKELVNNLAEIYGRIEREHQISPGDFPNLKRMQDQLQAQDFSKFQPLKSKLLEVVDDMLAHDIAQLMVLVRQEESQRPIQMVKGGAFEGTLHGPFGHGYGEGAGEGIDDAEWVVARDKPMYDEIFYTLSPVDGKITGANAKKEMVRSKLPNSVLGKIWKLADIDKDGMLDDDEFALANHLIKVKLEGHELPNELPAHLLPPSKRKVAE

T4: EHD2 (wt) (UniProt Q9NZN4)
T4 sequence: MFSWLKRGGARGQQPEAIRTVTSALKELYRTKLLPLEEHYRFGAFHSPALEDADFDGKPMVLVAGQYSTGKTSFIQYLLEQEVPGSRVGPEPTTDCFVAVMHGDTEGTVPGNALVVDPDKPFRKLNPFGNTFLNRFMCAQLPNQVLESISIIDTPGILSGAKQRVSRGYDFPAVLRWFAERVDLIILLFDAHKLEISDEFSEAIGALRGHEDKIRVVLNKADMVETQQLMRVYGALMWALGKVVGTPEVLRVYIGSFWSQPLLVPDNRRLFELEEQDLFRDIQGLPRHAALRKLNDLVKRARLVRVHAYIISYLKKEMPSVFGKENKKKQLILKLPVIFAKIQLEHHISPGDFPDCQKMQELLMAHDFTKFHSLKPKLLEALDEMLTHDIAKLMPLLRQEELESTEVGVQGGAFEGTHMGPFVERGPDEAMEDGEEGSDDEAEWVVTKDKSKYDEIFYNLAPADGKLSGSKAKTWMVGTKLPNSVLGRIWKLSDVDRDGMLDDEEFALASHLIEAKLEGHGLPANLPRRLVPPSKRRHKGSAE

B1: EHD2 (wt), Q9NZN4 1-543 (protein)
chain: T4 sequence
B2: GFP-Myc-EHD2 (protein, UniProt Q9NZN4 1-543)
chain: T4 sequence
B3: EHD2 (wt) (protein, UniProt Q9NZN4 1-543)
chain: T4 sequence
B4: EHD1 (wt) (protein, UniProt Q9H4M9 1-534)
chain: T1 chain
B5: EHD2 (NPF-to-NPA) (protein, UniProt Q9NZN4 1-543)
chain: T4 sequence with F128A
B6: EHD2 NPF-to-NPY (protein, UniProt Q9NZN4 1-543)
chain: T4 sequence with F128Y
B7: EHD2 (KPF-to-APA) (protein, UniProt Q9NZN4 1-543)
chain: T4 sequence with K120A, F122A
B8: EHD2 (KPF-to-KAF) (protein, UniProt Q9NZN4 1-543)
chain: T4 sequence with P121A
B9: EHD2 (NPF-to-APA) (protein, UniProt Q9NZN4 1-543)
chain: T4 sequence with N126A, F128A
B10: EHD2 (NPF-to-NAF) (protein, UniProt Q9NZN4 1-543)
chain: T4 sequence with P127A
B11: EHD2 NPF-to-NFP (protein, UniProt Q9NZN4 1-543)
chain: T4 sequence with P127F, F128P

Target: T1, EHD1 (wt), Q9H4M9
Assay: two-hybrid; S. cerevisiae AH109 co-transformed with Gal4bd and Gal4ad fusions; growth on plates lacking histidine (-HIS) against non-selective (+HIS) plates, 30°C
Conditions: remark: other sources report otherwise

**Q.** How did the binding turn out when B1 was run?
**A.** no binding

Target: Syndapin2 (in HeLa lysate) (human (endogenous in HeLa)) (UniProt Q9UNF0)
Assay: co-IP; HeLa cells transfected with GFP-Myc-EHD2 or mutants, lysed 24 h later; immunoprecipitation with antibodies against Syndapin2, immunoblot with anti-EHD2 antibodies
Conditions: not given

**Q.** For B2, which binding is on record?
**A.** binds

Target: T2, EHD4 (wt)
Assay: two-hybrid; S. cerevisiae AH109 co-transformed with Gal4bd and Gal4ad fusions; growth on plates lacking histidine (-HIS) against non-selective (+HIS) plates, 30°C
Conditions: not given

**Q.** With B3 as the binder, how does the binding read?
**A.** no binding

**Q.** B4 was tested. Which binding did it give?
**A.** binds

Target: Syndapin2 (UniProt Q9UNF0)
Assay: as above
Conditions: not given

**Q.** B3 was tested. Which binding did it give?
**A.** binds

**Q.** B5 was tested. Which binding did it give?
**A.** binds

**Q.** Which binding does the source give for B6 here?
**A.** binds

**Q.** B7 was tested. Which binding did it give?
**A.** binds

**Q.** How did the binding turn out when B8 was run?
**A.** binds

**Q.** How did the binding turn out when B4 was run?
**A.** binds

**Q.** For B9, which binding is on record?
**A.** binds

**Q.** B10 was tested. Which binding did it give?
**A.** no binding

**Q.** With B11 as the binder, how does the binding read?
**A.** no binding

Target: MICAL-L1 (UniProt Q8N3F8)
Assay: as above
Conditions: not given

**Q.** B3 was tested. Which binding did it give?
**A.** no binding

**Q.** How did the binding turn out when B4 was run?
**A.** binds

Target: T3, EHD3 (wt)
Assay: as above
Conditions: not given

**Q.** B3 was tested. Which binding did it give?
**A.** no binding

**Q.** With B4 as the binder, how does the binding read?
**A.** binds

Target: EHD1 (wt) (UniProt Q9H4M9)
Assay: as above
Conditions: not given

**Q.** For B4, which binding is on record?
**A.** binds

Target: T4, EHD2 (wt)
Assay: as above
Conditions: not given

**Q.** For B3, which binding is on record?
**A.** binds

**Q.** For B5, which binding is on record?
**A.** binds

**Q.** B6 was tested. Which binding did it give?
**A.** binds

**Q.** Which binding does the source give for B7 here?
**A.** binds

**Q.** Which binding does the source give for B8 here?
**A.** binds

**Q.** Which binding does the source give for B9 here?
**A.** binds

**Q.** How did the binding turn out when B10 was run?
**A.** no binding

**Q.** How did the binding turn out when B11 was run?
**A.** no binding
